Over roughly 33,000 sequences, “E-score (-0.5 to 0.5)” has its median near -0.035; the highest 2% begin near 0.34. Some of the results follow.
Each sequence was assayed against T1, Mot3 (UniProt P54785) (assay: PBM E-score (8-mer binding enrichment) (E-score (-0.5 to 0.5)); higher = stronger / more preferred TF binding; most listed sequences are background and not binding sites). Settings: protein concentration: 200 nM; construct: GST-full length.
T1 sequence: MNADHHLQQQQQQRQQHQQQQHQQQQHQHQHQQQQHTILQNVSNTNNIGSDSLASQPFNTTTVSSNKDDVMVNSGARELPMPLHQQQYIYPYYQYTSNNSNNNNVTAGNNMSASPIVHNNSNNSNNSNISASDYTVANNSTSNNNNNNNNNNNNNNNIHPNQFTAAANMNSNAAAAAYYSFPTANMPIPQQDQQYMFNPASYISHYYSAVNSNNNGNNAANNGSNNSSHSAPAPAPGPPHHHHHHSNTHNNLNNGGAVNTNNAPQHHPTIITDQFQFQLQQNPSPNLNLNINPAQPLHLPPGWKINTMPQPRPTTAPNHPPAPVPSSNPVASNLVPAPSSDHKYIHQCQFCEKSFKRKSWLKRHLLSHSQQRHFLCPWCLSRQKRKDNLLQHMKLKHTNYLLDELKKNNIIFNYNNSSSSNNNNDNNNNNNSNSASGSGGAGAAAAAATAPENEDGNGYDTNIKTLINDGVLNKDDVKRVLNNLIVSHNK
Summary of the method: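 Bound GST-tagged yeast transcription factors, applied at about 100-200 nM to double-stranded universal all-10-mer Agilent arrays, were detected with fluorescent anti-GST. Scans were normalised with masliner. A modified Wilcoxon-Mann-Whitney statistic, the E-score, was assigned to each ungapped eight-base word pooled with its reverse complement by the Universal PBM Analysis Suite.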

CGCTCAGA was tested. Which “PBM E-score” value did it give?
The value was 0.0235.

With CCTTCGGA as the sequence, how does the “PBM E-score” value read?
Its value is 0.126.

For AGCGCATA, which “PBM E-score” value is on record?
The value was -0.0903.

How did the “PBM E-score” value turn out when AACTGCCA was run?
Its value is -0.336.

How did the “PBM E-score” value turn out when ACGTCATA was run?
The value was 0.0809.

With CCTATAGC as the sequence, how does the “PBM E-score” value read?
The value was 0.0701.

CGCCGCTA was tested. Which “PBM E-score” value did it give?
Its value is -0.306.

Which “PBM E-score” value does the source give for AGTGCCCA here?
The value was 0.137.

Which “PBM E-score” value does the source give for TAAAGCTA here?
The value was 0.19.

GATGGCAA was tested. Which “PBM E-score” value did it give?
Its value is -0.0931.

Which “PBM E-score” value does the source give for GGACGGAC here?
The value was -0.42.

How did the “PBM E-score” value turn out when AGTCCTTG was run?
The value was -0.124.

For AATACCGG, which “PBM E-score” value is on record?
Its value is 0.0447.

How did the “PBM E-score” value turn out when ATCGTATC was run?
The value was -0.105.

With GCAAGAAA as the sequence, how does the “PBM E-score” value read?
Its value is 0.0552.

With CCGAGACG as the sequence, how does the “PBM E-score” value read?
The value was -0.0781.

For CGCAAGAA, which “PBM E-score” value is on record?
The value was -0.0261.

Which “PBM E-score” value does the source give for AACTGCCG here?
The value was -0.0686.

With CATGGGAC as the sequence, how does the “PBM E-score” value read?
The value was -0.00718.

GCACAGTA was tested. Which “PBM E-score” value did it give?
The value was -0.0809.

Which “PBM E-score” value does the source give for CGACTTTC here?
The value was 0.0333.

Which “PBM E-score” value does the source give for GCAGGGCC here?
The value was -0.209.

Which “PBM E-score” value does the source give for AACGGTCA here?
The value was -0.214.

Which “PBM E-score” value does the source give for GTGAAAAC here?
Its value is -0.0457.

How did the “PBM E-score” value turn out when AGCGAAGC was run?
Its value is -0.0443.

Which “PBM E-score” value does the source give for CAAAAGCA here?
Its value is 0.0722.

How did the “PBM E-score” value turn out when AAGTTGAC was run?
The value was 0.0257.

For CATCACCC, which “PBM E-score” value is on record?
Its value is -0.298.

Which “PBM E-score” value does the source give for ACAGCGCT here?
Its value is -0.00816.

Which “PBM E-score” value does the source give for GGAGCAAC here?
The value was -0.12.

Which “PBM E-score” value does the source give for GGGAAACC here?
The value was -0.00353.

How did the “PBM E-score” value turn out when AAATCCGG was run?
Its value is -0.208.

GAACCGAA was tested. Which “PBM E-score” value did it give?
Its value is -0.027.

CCGAGACC was tested. Which “PBM E-score” value did it give?
The value was -0.0907.

GTACTATA was tested. Which “PBM E-score” value did it give?
The value was 0.163.

For TTAATCAA, which “PBM E-score” value is on record?
Its value is 0.205.

How did the “PBM E-score” value turn out when AACTTACG was run?
The value was 0.273.

For CAGGAAAC, which “PBM E-score” value is on record?
The value was 0.445.

How did the “PBM E-score” value turn out when GCTATTAC was run?
Its value is 0.234.

For ACAGTCTA, which “PBM E-score” value is on record?
Its value is -0.00671.

How did the “PBM E-score” value turn out when CCACTTGA was run?
Its value is 0.0447.

With TAGCACTA as the sequence, how does the “PBM E-score” value read?
The value was -0.168.

For GGATGCCA, which “PBM E-score” value is on record?
The value was -0.267.

For GGTCAGTA, which “PBM E-score” value is on record?
The value was -0.141.

Which “PBM E-score” value does the source give for GGGAATAC here?
The value was 0.239.

How did the “PBM E-score” value turn out when GGTGATAA was run?
Its value is -0.215.

How did the “PBM E-score” value turn out when CGGGGCTC was run?
Its value is -0.313.

With AGGTAAAT as the sequence, how does the “PBM E-score” value read?
Its value is 0.318.

CGAGGGGA was tested. Which “PBM E-score” value did it give?
Its value is -0.213.

How did the “PBM E-score” value turn out when CGTTAATC was run?
The value was 0.162.

For CTAAACAA, which “PBM E-score” value is on record?
The value was 0.0775.

With ATCCCCCG as the sequence, how does the “PBM E-score” value read?
Its value is -0.175.

For ACCAACCT, which “PBM E-score” value is on record?
Its value is -0.0745.

For AATCCGAT, which “PBM E-score” value is on record?
Its value is -0.0237.

Which “PBM E-score” value does the source give for CAGAAACA here?
The value was 0.0657.

Which “PBM E-score” value does the source give for GCAAACTA here?
The value was 0.148.

With ACACCTAA as the sequence, how does the “PBM E-score” value read?
The value was 0.168.

With AGCGGTTC as the sequence, how does the “PBM E-score” value read?
The value was 0.0842.

With ACGGAATG as the sequence, how does the “PBM E-score” value read?
The value was -0.157.

CCAGTGTC was tested. Which “PBM E-score” value did it give?
The value was 0.0415.

For GGACTGAA, which “PBM E-score” value is on record?
The value was -0.13.

How did the “PBM E-score” value turn out when ACACATAC was run?
The value was 0.299.

AAAGTGGT was tested. Which “PBM E-score” value did it give?
Its value is -0.156.

Which “PBM E-score” value does the source give for ATCAAGCC here?
Its value is -0.00984.

CCGCGGGC was tested. Which “PBM E-score” value did it give?
The value was -0.252.

Which “PBM E-score” value does the source give for CTAAATGA here?
Its value is -0.0149.

AAGCCCTC was tested. Which “PBM E-score” value did it give?
Its value is -0.0664.

TCATAAAA was tested. Which “PBM E-score” value did it give?
Its value is -0.0377.

With ATTCATCG as the sequence, how does the “PBM E-score” value read?
The value was 0.099.

For CGTGCCGC, which “PBM E-score” value is on record?
Its value is -0.111.

How did the “PBM E-score” value turn out when ACACTGAG was run?
Its value is -0.128.

ACTTGAAG was tested. Which “PBM E-score” value did it give?
The value was 0.176.

Which “PBM E-score” value does the source give for CAAAACGG here?
The value was 0.0166.

Which “PBM E-score” value does the source give for GCTCTTCC here?
Its value is -0.118.

With AAACCGAC as the sequence, how does the “PBM E-score” value read?
The value was -0.0399.

ATCTCTGA was tested. Which “PBM E-score” value did it give?
The value was -0.0898.

CCTAACCG was tested. Which “PBM E-score” value did it give?
The value was -0.00016.

For CGGCCTTA, which “PBM E-score” value is on record?
The value was -0.159.

For ACAAGTGC, which “PBM E-score” value is on record?
Its value is 0.201.

For CTCGAGCA, which “PBM E-score” value is on record?
Its value is -0.0333.

For AGAATCAT, which “PBM E-score” value is on record?
The value was 0.0403.

Which “PBM E-score” value does the source give for CTTCATCC here?
The value was -0.199.

How did the “PBM E-score” value turn out when AAACCAGA was run?
The value was 0.0875.

ACGGGGAA was tested. Which “PBM E-score” value did it give?
Its value is -0.0674.

Which “PBM E-score” value does the source give for ACAGATGA here?
Its value is -0.0138.

With AACACCCT as the sequence, how does the “PBM E-score” value read?
The value was -0.096.

With ATTGGTAA as the sequence, how does the “PBM E-score” value read?
Its value is -0.0692.

With GCGTGGCC as the sequence, how does the “PBM E-score” value read?
The value was -0.0316.

With AGCGATGC as the sequence, how does the “PBM E-score” value read?
Its value is -0.257.

How did the “PBM E-score” value turn out when ACACACGG was run?
Its value is 0.182.

Which “PBM E-score” value does the source give for GCCTGAAA here?
The value was 0.274.

Which “PBM E-score” value does the source give for GCGCACCC here?
The value was -0.193.

How did the “PBM E-score” value turn out when GAATAACC was run?
Its value is -0.0707.

With ATGCTGAG as the sequence, how does the “PBM E-score” value read?
Its value is -0.281.

With CAACGCAG as the sequence, how does the “PBM E-score” value read?
The value was -0.0527.

Which “PBM E-score” value does the source give for AACCGACC here?
The value was -0.131.

For CATGCTAA, which “PBM E-score” value is on record?
The value was 0.259.

With GACGCTCC as the sequence, how does the “PBM E-score” value read?
Its value is -0.332.

With CACCTGCA as the sequence, how does the “PBM E-score” value read?
Its value is -0.0084.

Which “PBM E-score” value does the source give for GTAGCCGA here?
The value was -0.106.

For ACCCTTTC, which “PBM E-score” value is on record?
Its value is 0.104.

With ACAGACGC as the sequence, how does the “PBM E-score” value read?
Its value is -0.0211.

Which “PBM E-score” value does the source give for GCCTCGTA here?
The value was 0.213.

GAACGTGA was tested. Which “PBM E-score” value did it give?
Its value is 0.0923.

With CTAATGCA as the sequence, how does the “PBM E-score” value read?
Its value is 0.157.

Which “PBM E-score” value does the source give for CACGTCTC here?
The value was 0.0524.

Which “PBM E-score” value does the source give for ATAAACCG here?
The value was -0.195.

GGGCGCCC was tested. Which “PBM E-score” value did it give?
The value was -0.398.

With CGTCGGAG as the sequence, how does the “PBM E-score” value read?
Its value is 0.0541.

ACCTAGGT was tested. Which “PBM E-score” value did it give?
The value was 0.124.

— the supplement of paper PMC3334620
